Laboratory results from the BET-seq Pho4 binding data (Le et al. 2018).
The other results are listed elsewhere or left out. These are noisy estimates, calculated here from bound and input reads.

The sequences below were run against T1, Pho4 (S. cerevisiae) (UniProt P07270) (assay: relative binding free energy (BET-seq); higher = weaker binding). Conditions: reference: library average.
T1 sequence: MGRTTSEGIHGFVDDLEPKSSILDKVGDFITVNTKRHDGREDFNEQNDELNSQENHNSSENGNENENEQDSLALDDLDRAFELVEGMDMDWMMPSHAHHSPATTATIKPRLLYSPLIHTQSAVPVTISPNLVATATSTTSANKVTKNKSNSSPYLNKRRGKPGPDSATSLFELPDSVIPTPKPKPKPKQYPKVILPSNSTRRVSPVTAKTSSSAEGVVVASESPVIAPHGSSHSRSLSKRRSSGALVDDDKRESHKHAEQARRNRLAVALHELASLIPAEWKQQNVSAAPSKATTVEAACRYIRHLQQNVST

Row | Sequence | relative binding free energy
1 | AGAGCCACGTGGGTGT | -0.17 kcal/mol
2 | GTGATCACGTGTGAAG | 0.16 kcal/mol
3 | ATTGGCACGTGTTTCA | -0.11 kcal/mol
4 | AGTGTCACGTGAGCAT | 0.13 kcal/mol
5 | TAAATCACGTGCGTTA | 0.11 kcal/mol
6 | CTATTCACGTGTTTGA | 0.11 kcal/mol
7 | GGGTGCACGTGAACTG | 0.07 kcal/mol
8 | TATGTCACGTGTAAGT | 0.16 kcal/mol
9 | AGATTCACGTGGTAAT | 0.18 kcal/mol
10 | ATTGCCACGTGCGTGT | -0.23 kcal/mol
11 | AGGGCCACGTGGAGGG | -0.14 kcal/mol
12 | GCCGGCACGTGGGCGG | -0.27 kcal/mol
13 | ATTAGCACGTGGGGTT | -0.15 kcal/mol
14 | GTTTGCACGTGTTTAG | 0.11 kcal/mol
15 | GATTTCACGTGGAGTT | 0.44 kcal/mol
16 | TGGAACACGTGATGAT | 0.3 kcal/mol
17 | GTTTACACGTGGCGAT | 0.06 kcal/mol
18 | CTTTACACGTGTGATT | 0.03 kcal/mol
19 | CTGGGCACGTGCGAGT | 0 kcal/mol
20 | CGTGTCACGTGGACTG | 0.08 kcal/mol
21 | AAGTACACGTGGTCTG | -0.06 kcal/mol
22 | GCGTTCACGTGGGGGT | 0.13 kcal/mol
23 | GGGTTCACGTGTGCGT | 0.34 kcal/mol

Row | Sequence | relative binding free energy
24 | GATGGCACGTGTAGTG | 0.06 kcal/mol
25 | TTCAGCACGTGTGTAA | -0.01 kcal/mol
26 | GTGTACACGTGGAATA | 0.09 kcal/mol
27 | GGGATCACGTGGCTTT | 0.27 kcal/mol
28 | GCTGGCACGTGTAAGT | 0.17 kcal/mol
29 | ATTTACACGTGGTCTT | -0.01 kcal/mol
30 | AATGGCACGTGATATT | 0.02 kcal/mol
31 | GTCTGCACGTGTGTTA | -0.01 kcal/mol
32 | ACAGACACGTGGGGAG | -0.1 kcal/mol
33 | GATCGCACGTGTAGGG | 0.13 kcal/mol
34 | GTGTGCACGTGCTGCG | -0.1 kcal/mol
35 | AGTTACACGTGCTGTA | -0.03 kcal/mol
36 | AAGCTCACGTGGTGGT | 0.12 kcal/mol
37 | CAGGTCACGTGTCGTT | 0.2 kcal/mol
38 | CTAATCACGTGTGTGG | 0.16 kcal/mol
39 | ATCATCACGTGGAGTA | 0.2 kcal/mol
40 | AGATGCACGTGTGTTT | 0.06 kcal/mol
41 | AGAGGCACGTGTCAGT | -0.2 kcal/mol
42 | CGTTGCACGTGTGTGC | -0.01 kcal/mol
43 | TGTACCACGTGTTTTA | 0.07 kcal/mol
44 | GGTTTCACGTGCGGCA | 0.26 kcal/mol
45 | GGTTTCACGTGAAAGC | 0.29 kcal/mol
46 | AGGCGCACGTGGATTT | -0.03 kcal/mol

Row | Sequence | relative binding free energy
47 | ATATTCACGTGATGTC | 0.38 kcal/mol
48 | ATGGACACGTGGAGGT | 0.11 kcal/mol
49 | GTAGTCACGTGTGAGG | 0.22 kcal/mol
50 | TTGGGCACGTGTAGAC | 0 kcal/mol
51 | GGTGTCACGTGCTCAG | 0.11 kcal/mol
52 | CTGAGCACGTGATTTT | 0.06 kcal/mol
53 | TATGCCACGTGAGTGT | 0.08 kcal/mol
54 | TGTTGCACGTGTGAGT | 0.1 kcal/mol
55 | CAGGTCACGTGGGCTT | -0.02 kcal/mol
56 | TTGCGCACGTGAAGGG | 0.14 kcal/mol
57 | GGGTCCACGTGGGGCA | -0.26 kcal/mol
58 | TCGGTCACGTGTCTGT | 0.1 kcal/mol
59 | GGTGGCACGTGATAGT | 0.02 kcal/mol
60 | TTGATCACGTGGGGAA | 0.08 kcal/mol
61 | GGGGTCACGTGCTTGC | 0.09 kcal/mol
62 | CTCGGCACGTGTTTGT | -0.19 kcal/mol
63 | TATGGCACGTGATATG | 0.05 kcal/mol
64 | TGGTCCACGTGGATTT | 0.02 kcal/mol
65 | TCGGGCACGTGGGGAA | -0.33 kcal/mol
66 | GAGCTCACGTGTTGTT | 0.28 kcal/mol
67 | TGCTTCACGTGCGGGA | 0.26 kcal/mol
68 | GGTATCACGTGCAGTT | 0.05 kcal/mol
69 | ATTATCACGTGGGATA | 0.13 kcal/mol

Row | Sequence | relative binding free energy
70 | GGTGTCACGTGTCTGG | 0.18 kcal/mol
71 | AATGCCACGTGGTAGT | -0.12 kcal/mol
72 | TTTTCCACGTGGGGGT | -0.09 kcal/mol
73 | GAGGTCACGTGTAGTG | 0.16 kcal/mol
74 | GGGATCACGTGAGAGA | 0.39 kcal/mol
75 | TGTGCCACGTGTGGCT | 0.02 kcal/mol
76 | ATCAGCACGTGGGGTG | -0.35 kcal/mol
77 | ATGATCACGTGTGTCA | 0.11 kcal/mol
78 | GAGTTCACGTGTGTAA | 0.28 kcal/mol
79 | TTGGTCACGTGAGGAT | 0.32 kcal/mol
80 | ACTTACACGTGGGTTT | -0.04 kcal/mol
81 | GAAGGCACGTGGAAGG | 0.01 kcal/mol
82 | TGGTTCACGTGTAAAA | 0.35 kcal/mol
83 | TGGGCCACGTGTCGGC | 0.01 kcal/mol
84 | GTGAGCACGTGTGACG | -0.03 kcal/mol
85 | TACGTCACGTGGTAGG | 0.1 kcal/mol
86 | TTTAGCACGTGACTGG | 0.06 kcal/mol
87 | ACGTTCACGTGTATTT | 0.16 kcal/mol
88 | GGCATCACGTGGATTT | 0.2 kcal/mol
89 | GGGAGCACGTGTATGT | -0.09 kcal/mol
90 | AAATGCACGTGGGTTG | -0.09 kcal/mol
91 | TTGTGCACGTGTAACG | 0.13 kcal/mol
92 | TTAGGCACGTGTTGGC | 0.03 kcal/mol

Row | Sequence | relative binding free energy
93 | TGGGTCACGTGCTGGT | 0.07 kcal/mol
94 | TATATCACGTGGTAGT | 0.09 kcal/mol
95 | AATGGCACGTGATGTT | 0.07 kcal/mol
96 | GGTGGCACGTGACTAG | -0.01 kcal/mol
97 | AGGTCCACGTGTTATT | 0.08 kcal/mol
98 | TATTTCACGTGTATTA | 0.18 kcal/mol
99 | TATGGCACGTGGAGGC | -0.07 kcal/mol
100 | GCTGGCACGTGCGTGT | -0.15 kcal/mol
101 | GGGGCCACGTGGTTTC | 0.06 kcal/mol
102 | GCAAGCACGTGTTGTG | 0.02 kcal/mol
103 | GTCTGCACGTGAGTGG | 0.23 kcal/mol
104 | ATGAGCACGTGGAGGG | -0.2 kcal/mol
105 | TAGTTCACGTGGTGGT | 0.31 kcal/mol
106 | TGCGGCACGTGGAATG | -0.01 kcal/mol
107 | TGTGCCACGTGGGGTG | -0.3 kcal/mol
108 | AGGGGCACGTGCTGCG | -0.32 kcal/mol
109 | GAACACACGTGTGTGG | 0.24 kcal/mol
110 | AGAGTCACGTGGGTCT | -0.02 kcal/mol
111 | AGTATCACGTGGAATT | 0.31 kcal/mol
112 | TGAGGCACGTGGTACA | -0.19 kcal/mol
113 | AGTGACACGTGGGCAT | -0.25 kcal/mol
114 | ATCAACACGTGGGCGG | 0.02 kcal/mol
115 | TGTTGCACGTGTTATA | -0.01 kcal/mol
